± gives the standard deviation of the averaged measurements. The list shows a part of the results.

This test relates to PfAP2-I AP2 domain 3 (GST-tagged). Description: gcPBM binding intensity (ln(normalized median fluorescence intensity)); higher = stronger DNA binding. In short, it runs like this:
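Binding intensity is defined as the maximum Masliner-normalised natural-log median intensity across replicate spots for either probe orientation. It was measured on an Agilent 4 × 180k array of primer-extended double-stranded 36-bp intergenic genomic probes and negative controls, to which GST-tagged P. falciparum DNA-binding domains made in E. coli were applied for 1 h in 1× PBS with 1% milk, 0.2 mg/ml BSA, 0.5% salmon testes DNA and 0.03% Triton X-100. Detection was by Alexa488 anti-GST antibody and scanning at 488 nm.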
Turning to “ACATAATTTGATAATACACACAAATAATCTAAAATT [CACACA_site129]”, the “gcPBM binding intensity (ln)” value was found to be 7.8 ± 0.43.
Consider “AAAATAATCACATATTGTACAAAAAAATTTATTAAA [XGTACX_site3239]”, for which the “gcPBM binding intensity (ln)” value came to 7.82 ± 0.55.
For “TTTAATTATAAAACGTGTACATAATTATAATTACAT [XGTACX_site2206]” the value was 8.45 ± 0.42; for “AAAAAATGGATGATCACACACTTCATAAAAATTGCA [CACACA_site5256]”, 7.38 ± 0.59.
In the case of “AAAAAAAAAAAAAAATGTACCCATATATAAATATAT [XGTACX_site4061]”, the “gcPBM binding intensity (ln)” value was 8.34 ± 0.4.
The figure for “ATTATGTACAAAATGGTGCAATATTATACATATATA [GTGCAC_site9468]” is 11.1 ± 0.49.
For “AAAAATAGTATAAGTAGTACAACTGAAAAGTTATGT [XGTACX_site7488]”, the “gcPBM binding intensity (ln)” value was 7.96 ± 0.57.
As for “ATCATTTGCTCACGCACACACACATAAAAAGAAAAA [CACACA_site4349]”, the “gcPBM binding intensity (ln)” value came to 8.53 ± 0.18.
The figure for “GACTTTTCAATTTTTCGTACGTATAAATTGTATACA [XGTACX_site1488]” is 7.88 ± 0.57; for “TTTTGTTACTTTTATGTGCACTTATAAAACGAACTA [GTGCAC_site9551]” it is 11.3 ± 0.085; for “CTAATATATATCAATTGTACATATTGAATAAGAACA [XGTACX_site4541]” it is 7.89 ± 0.15.
As to “TTTTTATTGTTGTACTTATATTATTTTATTATTAAA [GTGCAC_negctrl_site200]”, the “gcPBM binding intensity (ln)” value was found to be 8.23 ± 0.38.
Turning to “ATTCATTCATATGTTACACACACACCGACACATAAA [CACACA_site5749]”, the “gcPBM binding intensity (ln)” value was 8.38 ± 0.49.
“TATTAAACTGGACACACACACACACCCATATATAAA [CACACA_site4579]”: the “gcPBM binding intensity (ln)” value came to 8.1 ± 0.28.
With “AAATTATGTGCCAATACACACACACCGATATATATA [CACACA_site8050]”, the “gcPBM binding intensity (ln)” value turned out to be 8.37 ± 0.58.
With “ATAATATAGAAACACACACACATATATATATACATT [CACACA_site555]”, the “gcPBM binding intensity (ln)” value came to 7.85 ± 0.48.
On to “TTTATATATAAATATATATATATATATATATATATA [TGCATGCA_negctrl_site121]”, for which the “gcPBM binding intensity (ln)” value amounted to 9.07 ± 0.76.
For the sequence “TAGTTTTTATATAGCACACATATTGTGATTATGTAT [CACACA_site1196]”, the “gcPBM binding intensity (ln)” value worked out at 9.09 ± 0.21.
For “TACTACCACGGACATGCATGCACATTATTACTCTAA [TGCATGCA_site313]” the value was 8.25 ± 0.75; for “TTCTTAGATTGTACAGTACACACCTTTAGAATGTTA [CACACA_site212]”, 7.97 ± 0.47; for “AATTCATTTTACCCATGTACACAATTATATTTTATA [XGTACX_site4127]”, 8.29 ± 0.36.
Consider “AAGAAAAAATGATGAATAGAGATCAAATCTATATAT [TGCATGCA_negctrl_site29]”, for which the “gcPBM binding intensity (ln)” value was determined as 7.36 ± 0.68.
“ACATTCATAAAAAAAAGTACATTTTTTATAAAAGAA [XGTACX_site6197]”: the “gcPBM binding intensity (ln)” value is 7.74 ± 0.52.
In the case of “TTGTTAAATATTTATAAAATGAATTTAAAATGTACT [CACACA_negctrl_site665]”, the “gcPBM binding intensity (ln)” value worked out at 7.83 ± 0.3.

For the origin of these results see the supplement of paper PMC11417369.
